Assay results published in PubChem BioAssay AID463173 (ICCB-Longwood Screening Facility, Harvard Medical School, 2010).
Among all 52,000 compounds or so, about 1,700 (3.3%) were called active. Cut-off read from the data, not from the text of the source: active = survival mostly below about 52% (no sharp cut-off); inactive = mostly above about 56%. This is one part of the list.

These compounds were tested on Wild type (assay: growth inhibition of S. aureus wild type versus tarO mutant, primary screen, teichoic acid synthesis inhibitors, RN4220, OD600 (AID 463173)). Conditions: S. aureus RN4220 wild type/DeltatarO growth, OD600, 18 h, hits give low values, screened at 18.75 µg/mL (by protocol).
COc1ccc(S(=O)(=O)Nc2cccc(-c3ccc(N4CCCC4)nn3)c2)cc1OC was tested, and the survival was inactive: 87%.
For Cc1ccc(C)c(CN2C(=O)CSc3ccc(C(=O)NCCc4ccc(Cl)cc4)cc32)c1, the survival was inactive: 63%.
For CCCNC(=O)Cn1nc(-c2ccc(C)c(C)c2)c2cnc3ccc(F)cc3c21, the survival was inactive: 69%.
For Clc1ccc(CNc2cc(-c3ccccc3)nc3nncn23)cc1, the survival was inactive: 72%.
With CCN(c1ccccc1)S(=O)(=O)c1ccc2[nH]cc(C(=O)NCc3ccc(C)cc3)c(=O)c2c1 the survival was inactive: 127%.
For N#Cc1c(Nc2cccc(F)c2)sc(C(=O)c2ccc(Cl)cc2)c1N, the survival was inactive: 101%.
With COc1ccc(N2CC(NC(=O)c3ccc(OC(C)C)cc3)CC2=O)cc1 (centres undefined) the survival was active: -2%.
With Cc1c(-c2ccc(Cl)cc2)c(=O)oc2c(CN3CCCC3)c(O)ccc12 the survival was inactive: 85%.
Cc1ccc(OCC(=O)Nc2ccc3nc(Nc4cccc(Cl)c4)cc(C)c3c2)cc1 was tested, and the survival was inactive: 130%.
For COc1ccc(-c2nc3sc(CCNS(=O)(=O)c4ccc(F)c(C)c4)c(C)n3n2)cc1, the survival was inactive: 55%.
For COc1ccccc1CNC(=O)CN1C(=O)CCn2nc(-c3ccccc3)cc21, the survival was inactive: 65%.
With Nc1ccc2[nH]c(=O)nc(-c3ccccc3)c2c1 the survival was inactive: 107%.
COc1nc(OC)nc(N2CCC(C(=O)NC3CCCCCC3)CC2)n1 was tested, and the survival was inactive: 110%.
For COc1ccc(N(C(=O)COc2ccccc2OC)S(=O)(=O)c2ccc(Cl)cc2)cc1, the survival was inactive: 62%.
O=C(c1ccccc1)n1nc(-c2ccco2)nc1NCc1ccccc1Cl was tested, and the survival was inactive: 106%.
With CCc1ccccc1NC(=O)Nc1cc(C(=O)NCc2ccc(OC)cc2)ccc1N1CCCC1 the survival was inactive: 128%.
With Cc1noc(C)c1S(=O)(=O)N1CCCC(C(=O)Nc2ccc(C(C)C)cc2)C1 (centres undefined) the survival was inactive: 90%.
With COc1cccc(-n2cc(C(=O)Nc3cc(C)c(Cl)cc3OC)c3ccccc3c2=O)c1 the survival was inactive: 83%.
CCOc1ccc(CCNC(=O)C2CCC(CNS(=O)(=O)c3ccc(Cl)cc3)CC2)cc1OCC (centres undefined) was tested, and the survival was inactive: 87%.
For CCC1(CO)COC(c2ccco2)OC1 (centres undefined), the survival was inactive: 106%.
In the case of CCOc1ccc(CNC(=O)C2CCN(c3nn4c(=O)cc(C)nc4s3)CC2)cc1, the survival is reported as inactive: 87%.
For Cc1ccccc1C(=O)NN1C(=O)c2ccccc2C1=O, the survival was inactive: 103%.
In the case of CCOCCCNC(=O)c1cc2c(=O)[nH]c3ccccc3c2n1C, the survival is reported as inactive: 125%.
O=C(CCCn1ccc2cc(S(=O)(=O)N3CCCC3)ccc21)NCc1ccc(Cl)cc1 was tested, and the survival was inactive: 70%.
For CC1CC(=O)N(CC(=O)Nc2ccc(F)cc2F)c2ccccc2S1 (centres undefined), the survival was inactive: 84%.
With Cc1c(-c2ccccc2)c(=O)oc2c(CN3CCCC3)c(O)ccc12 the survival was inactive: 113%.
With CCc1ccc(C2CC(=O)NC(NC(=O)c3ccc(C(C)(C)C)cc3)=N2)cc1 (centres undefined) the survival was inactive: 59%.
In the case of CCOc1ccc(/C=C/c2nc(C#N)c(Nc3ccc(OCC)cc3)o2)cc1, the survival is reported as inactive: 92%.
For Cn1c(=O)[nH]c(=O)c2c1nc(NCCO)n2CC(O)COc1ccccc1 (centres undefined), the survival was inactive: 149%.
Cc1nc2ccn(Cc3ccccc3)c(=O)c2cc1C(=O)NCc1ccccc1F was tested, and the survival was inactive: 99%.
CC1(C)Oc2ccc(C(=O)N3CCCC3)cc2N(CC(=O)N2CCCCC2)C1=O was tested, and the survival was inactive: 101%.
For CC1CCCN(C(=O)CSc2nnc(COc3ccc(Cl)cc3)n2C)C1 (centres undefined), the survival was inactive: 102%.
For O=C(NCCc1ccc(Cl)cc1)c1ccc2c(c1)N(Cc1ccccc1F)C(=O)c1ccccc1S2(=O)=O, the survival was inactive: 100%.
For COc1ccc(NC(=O)Nc2cccc(-c3cn4cccnc4n3)c2)cc1, the survival was inactive: 77%.
CCOc1ccc(NC(=O)Cn2c(=O)n(Cc3ccc(C(=O)NCc4ccc(C)cc4)cc3)c(=O)c3ccccc32)cc1 was tested, and the survival was inactive: 70%.
With COc1cccc(CNC(=O)CN2C(=O)COc3ccc(S(=O)(=O)N4CCCCCC4)cc32)c1 the survival was inactive: 89%.
In the case of Cc1ccc(-c2nc3ncccc3o2)cc1NC(=O)c1ccccc1Br, the survival is reported as inactive: 79%.
For CCc1cccc(NC(=O)Cn2c(=O)n(CCC(=O)NCC3CCCO3)c(=O)c3cc(OC)c(OC)cc32)c1 (centres undefined), the survival was inactive: 75%.
For Cc1ccc(CSC2=Nc3ccccc3C3=NC(CC(=O)NCc4cccs4)C(=O)N23)cc1 (centres undefined), the survival was inactive: 69%.
For O=C(CS(=O)(=O)Cc1ccccc1)Nc1ccc2c(c1)OCO2, the survival was inactive: 114%.
Cc1ccc(CNC(=O)c2cc3c(s2)-c2ccc(Cl)cc2SC3)cc1 was tested, and the survival was inactive: 90%.
For CN(C)c1ccc(NC(=O)CN2CCN(CC(=O)Nc3ccc(Br)cc3)CC2)cc1, the survival was inactive: 71%.
For O=C(NCCC1=CCCCC1)C1CC(O)CN1C(=O)Nc1ccccc1 (centres undefined), the survival was inactive: 98%.
CCN(C(=O)C1CCCN(c2ncnc3onc(-c4ccc(F)cc4)c23)C1)c1ccccc1 (centres undefined) was tested, and the survival was inactive: 126%.
